# Reference: the supplement of paper PMC8728848
# The other results are listed elsewhere or left out.
# B1: PX9961T-pdi-555-33-555 (Parabacteroides distasonis) (protein)
# chain: FDEETAFQSPTLVYVNTVASLYNNMFKIMGNDRHVYDLNTFSSDEAMLPCRIGDWEDGGLWQNIFLHRWGTMNDLTKNSWDFLYEQIGKCNQSVDKLQAFAEEQPDVEYFKVYLEEVRAVRAFFYYELLDLFARVPLVTSSTTPMSEVKQSERSVVFNFVRSELEEALPYLSDNRSNQKGEYYGRITKPVAYMILAKLALNAEVYADDNWTDGNRPAGKNIKFTVDGKEMNAWEATIAYVDKLEALGYKLQGNFSENFAVANETSVENIFTVPMDPVAYPDAKDYNLVRTRHYDHATAYGQSGWNGSCATVKAMNVFKFGTADEDPRCKLTYFTGEVTGPDGKTIYTEWDGQKVPLKYEPNAPKVYMDASDGLLVKTAGARMAKYEFDQNAQDGGNLHGNDCVIFRFADALLMKAEAKIRLGQNGDDEVNQVRNRVGAKPLQNVTLDTLLDERMLELAWEGVRRQDLIRFGKFTEATVDRYVGVKHFASSLDYQEDKTGYTTVFSIYADILSLNPNLTQNPGY
# Columns and labels:
# Assay in all cases: glycan array binding signal (z-score within array); higher = stronger binding
# Conditions in all cases: glycan notation: IUPAC condensed, linker removed
# [1] = target: Fuc(a1-3)[Gal3S(b1-4)]GlcNAc6S
# Method in brief: (§1)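 The binding signal is a Z-score computed within each array. Data were drawn from 3228 arrays in the Consortium for Functional Glycomics database, restricted to those with a known protein sequence. Scores were averaged over arrays of the same protein sequence at different concentrations or buffers, and over linkers, and negative values can be taken as non-binding.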
# [2] = target: Fuc(a1-3)[GalNAc(b1-4)]GlcNAc
# Method in brief: as §1
# [3] = target: Fuc(a1-3)[GalNAc(b1-4)]GlcNAc6S
# Method in brief: as §1
# Fuc(a1-4)GlcNAc = target: Fuc(a1-4)GlcNAc
# Method in brief: as §1
# Fuc(b1-3)GlcNAc = target: Fuc(b1-3)GlcNAc
# Method in brief: as §1
# Gal(a1-2)Gal = target: Gal(a1-2)Gal
# Method in brief: as §1
# Gal(a1-3)Gal = target: Gal(a1-3)Gal
# Method in brief: as §1
# Gal(a1-3)Gal(b1-3)GlcNAc = target: Gal(a1-3)Gal(b1-3)GlcNAc
# Method in brief: as §1
# [4] = target: Gal(a1-3)Gal(b1-3)GlcNAc(b1-2)Man
# Method in brief: as §1
# [5] = target: Gal(a1-3)Gal(b1-3)GlcNAc(b1-2)Man(a1-3)[Gal(a1-3)Gal(b1-3)GlcNAc(b1-2)Man(a1-6)]Man(b1-4)GlcNAc(b1-4)GlcNAc
# Method in brief: as §1
# [6] = target: Gal(a1-3)Gal(b1-3)GlcNAc(b1-3)GalNAc
# Method in brief: as §1
# [7] = target: Gal(a1-3)Gal(b1-3)GlcNAc(b1-6)GalNAc
# Method in brief: as §1
# [8] = target: Gal(a1-3)Gal(b1-3)[Fuc(a1-4)]GlcNAc(b1-2)Man(a1-3)[Gal(a1-3)Gal(b1-3)[Fuc(a1-4)]GlcNAc(b1-2)Man(a1-6)]Man(b1-4)GlcNAc(b1-4)GlcNAc
# Method in brief: as §1
# Gal(a1-3)Gal(b1-4)Glc = target: Gal(a1-3)Gal(b1-4)Glc
# Method in brief: as §1
# Gal(a1-3)Gal(b1-4)GlcNAc = target: Gal(a1-3)Gal(b1-4)GlcNAc
# Method in brief: as §1
# [9] = target: Gal(a1-3)Gal(b1-4)GlcNAc(b1-2)Man
# Method in brief: as §1
# [10] = target: Gal(a1-3)Gal(b1-4)GlcNAc(b1-2)Man(a1-3)[Gal(a1-3)Gal(b1-4)GlcNAc(b1-2)Man(a1-6)]Man(b1-4)GlcNAc(b1-4)GlcNAc
# Method in brief: as §1
# [11] = target: Gal(a1-3)Gal(b1-4)GlcNAc(b1-3)GalNAc
# Method in brief: as §1
# [12] = target: Gal(a1-3)Gal(b1-4)GlcNAc(b1-6)GalNAc
# Method in brief: as §1
# [13] = target: Gal(a1-3)Gal(b1-4)[Fuc(a1-3)]GlcNAc
# Method in brief: as §1
# [14] = target: Gal(a1-3)Gal(b1-4)[Fuc(a1-3)]GlcNAc(b1-2)Man(a1-3)[Gal(a1-3)Gal(b1-4)[Fuc(a1-3)]GlcNAc(b1-2)Man(a1-6)]Man(b1-4)GlcNAc(b1-4)GlcNAc
# Method in brief: as §1
# Gal(a1-3)GalNAc = target: Gal(a1-3)GalNAc
# Method in brief: as §1
# [15] = target: Gal(a1-3)[Gal(a1-4)]Gal(b1-4)GlcNAc
# Method in brief: as §1
# [16] = target: Gal(a1-4)Gal(b1-3)GlcNAc(b1-2)Man(a1-3)[Gal(a1-4)Gal(b1-3)GlcNAc(b1-2)Man(a1-6)]Man(b1-4)GlcNAc(b1-4)GlcNAc
# Method in brief: as §1
# Gal(a1-4)Gal(b1-4)Glc = target: Gal(a1-4)Gal(b1-4)Glc
# Method in brief: as §1
# Gal(a1-4)Gal(b1-4)GlcNAc = target: Gal(a1-4)Gal(b1-4)GlcNAc
# Method in brief: as §1
# [17] = target: Gal(a1-4)Gal(b1-4)GlcNAc(b1-2)Man(a1-3)[Gal(a1-4)Gal(b1-4)GlcNAc(b1-2)Man(a1-6)]Man(b1-4)GlcNAc(b1-4)GlcNAc
# Method in brief: as §1
# [18] = target: Gal(a1-4)Gal(b1-4)GlcNAc(b1-3)Gal(b1-4)Glc
# Method in brief: as §1
# Gal(a1-4)GlcNAc = target: Gal(a1-4)GlcNAc
# Method in brief: as §1
# Gal(a1-6)Glc = target: Gal(a1-6)Glc
# Method in brief: as §1
# Gal(b1-2)Gal = target: Gal(b1-2)Gal
# Method in brief: as §1
# Gal(b1-3)Gal = target: Gal(b1-3)Gal
# Method in brief: as §1
# Gal(b1-3)Gal(b1-4)GlcNAc = target: Gal(b1-3)Gal(b1-4)GlcNAc
# Method in brief: as §1
# Gal(b1-3)GalNAc = target: Gal(b1-3)GalNAc
# Method in brief: as §1
# [19] = target: Gal(b1-3)GalNAc(a1-3)[Fuc(a1-2)]Gal(b1-4)Glc
# Method in brief: as §1
# [20] = target: Gal(b1-3)GalNAc(a1-3)[Fuc(a1-2)]Gal(b1-4)GlcNAc
# Method in brief: as §1
# Gal(b1-3)GalNAc(b1-3)Gal = target: Gal(b1-3)GalNAc(b1-3)Gal
# Method in brief: as §1
binder,measurement,setting,value
B1,glycan array binding signal (z-score),[1],0.036
same,glycan array binding signal (z-score),[2],0.038
same,glycan array binding signal (z-score),[3],-0.391
same,glycan array binding signal (z-score),Fuc(a1-4)GlcNAc,0.265
same,glycan array binding signal (z-score),Fuc(b1-3)GlcNAc,0.329
same,glycan array binding signal (z-score),Gal(a1-2)Gal,0.275
same,glycan array binding signal (z-score),Gal(a1-3)Gal,-0.435
same,glycan array binding signal (z-score),Gal(a1-3)Gal(b1-3)GlcNAc,-0.206
same,glycan array binding signal (z-score),[4],-0.596
same,glycan array binding signal (z-score),[5],0.237
same,glycan array binding signal (z-score),[6],-0.176
same,glycan array binding signal (z-score),[7],-0.21
same,glycan array binding signal (z-score),[8],-0.349
same,glycan array binding signal (z-score),Gal(a1-3)Gal(b1-4)Glc,0.197
same,glycan array binding signal (z-score),Gal(a1-3)Gal(b1-4)GlcNAc,0.037
same,glycan array binding signal (z-score),[9],0.022
same,glycan array binding signal (z-score),[10],0.963
same,glycan array binding signal (z-score),[11],-0.098
same,glycan array binding signal (z-score),[12],0.534
same,glycan array binding signal (z-score),[13],0.759
same,glycan array binding signal (z-score),[14],0.592
same,glycan array binding signal (z-score),Gal(a1-3)GalNAc,-0.109
same,glycan array binding signal (z-score),[15],0.147
same,glycan array binding signal (z-score),[16],2.7
same,glycan array binding signal (z-score),Gal(a1-4)Gal(b1-4)Glc,-0.075
same,glycan array binding signal (z-score),Gal(a1-4)Gal(b1-4)GlcNAc,-0.041
same,glycan array binding signal (z-score),[17],1.51
same,glycan array binding signal (z-score),[18],-0.278
same,glycan array binding signal (z-score),Gal(a1-4)GlcNAc,-0.332
same,glycan array binding signal (z-score),Gal(a1-6)Glc,0.668
same,glycan array binding signal (z-score),Gal(b1-2)Gal,0.357
same,glycan array binding signal (z-score),Gal(b1-3)Gal,-0.817
same,glycan array binding signal (z-score),Gal(b1-3)Gal(b1-4)GlcNAc,-0.663
same,glycan array binding signal (z-score),Gal(b1-3)GalNAc,0.013
same,glycan array binding signal (z-score),[19],0.663
same,glycan array binding signal (z-score),[20],-0.258
same,glycan array binding signal (z-score),Gal(b1-3)GalNAc(b1-3)Gal,-0.204
